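Five concentrations, 48 hours, 96-well plates. Here, GI50 denotes the concentration required for 50% inhibition of growth.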 Activity calls are given as the source filed them. Cut-off read from the data, not from the text of the source: active = GI50 up to about 1.1 µM and inactive = higher.

The assay deals with NCI-H322M. Nature of the assay: growth of human tumour cells (NCI), 48 h.
`NC(=O)c1ccc(C(=O)Nc2ccc([As](=O)(O)O)cc2)cc1`: the GI50 was inactive: > 100 µM.
Take `CN(CC(=O)O)Cc1oc(CO)cc(=O)c1O`: the GI50 was inactive: > 100 µM.
In the case of `COC(=O)Cc1ccc2c(cnn2-c2ccccc2)c1OC`, the GI50 was inactive: > 10 µM.
Regarding `Cc1cccc(C2SCc3nc4ccccc4n32)c1` (stereo not drawn), the GI50 is inactive: 45.8 µM.
Turning to `CN(C)c1ccc(C2CC(C)(O)Oc3cc4c(cc32)OCO4)cc1` (stereo not drawn), the GI50 was inactive: 92 µM.
With `O=C(Nc1cccc(F)c1)c1cc2ccc(O)cc2o/c1=N\c1ccccc1F`, the GI50 is inactive: 2.29 µM.
With `CN(C)Cc1cc(/N=N/c2ccc(Cl)cc2)cc(CN(C)C)c1O`, the GI50 is inactive: 10.8 µM.
For the compound `COC(=O)C(CC(=O)Nc1ccc(Cl)c(Cl)c1)C(=O)C(=O)NC1C2CC3CC(C2)CC1C3` (stereo not drawn), the GI50 is inactive: > 100 µM.
Consider `CCOc1cc2c(cc1O)CC[C@@H]1[C@@H]2CC[C@]2(C)C(OS(=O)OC3CC[C@@H]4[C@H]5CCc6cc(O)c(OCC)cc6[C@@H]5CC[C@@]34C)CC[C@@H]12` (stereo partly drawn), for which the GI50 is inactive: 1.83 µM.
Regarding `O=C(O)/C(Cl)=C(/Cl)C(=O)Nc1cccc(Cl)c1`, the GI50 is inactive: 54.5 µM.
Turning to `Cn1c(=O)c2c(nc(NCCCCl)n2CC(=O)NCCCCl)n(C)c1=O`, the GI50 is inactive: > 100 µM.
For the compound `CC(=O)CCC1(C(=O)OCC(C)C)CCCC1=O` (stereo not drawn), the GI50 is inactive: > 100 µM.
For the compound `O=C1NN(Cc2ccccc2)C(=O)N2CCC[C@@H]12`, the GI50 is inactive: > 100 µM.
Consider `COc1ccc(-c2c(/C=N/OCC(=O)O)c3sc4ccccc4n3c2/C=N/OCC(=O)O)cc1`, for which the GI50 was inactive: > 50 µM.
As for `COc1ccc2c(c1)c(=O)c1c(NCCNCCO)ccc3c(=O)n(CCN(C)C)c(=O)n2c31`, the GI50 was active: 0.0164 µM.
For `CC(=O)N1N=C(c2ccc3ccccc3c2O)CC1c1cccs1` (stereo not drawn), the GI50 was inactive: 16.2 µM.
On to `COc1ccc(-c2cc(-c3ccc(Cl)cc3)n(C3OC(CO)C(O)C(O)C3O)c(=S)c2C#N)cc1` (stereo not drawn), for which the GI50 is inactive: > 100 µM.
As to `C/C(=N\N=C(\N)OB(F)F)c1ccccn1`, the GI50 is inactive: > 100 µM.
Consider `C/C(=N\NC(=S)NC(C)C)c1nc2cccnc2[nH]1`, for which the GI50 was inactive: 31 µM.
For `CCOc1cc(NC(C)=O)ccc1C(=O)NN1C(=O)C(Cl)C1c1ccco1` (stereo not drawn), the GI50 is inactive: 16.6 µM.
In the case of `[O-][S+](Cc1ccccn1)c1nc2ccccc2nc1-c1ccccc1` (stereo not drawn) it was inactive: 42.4 µM; in that of `CCOC(=O)C#Cc1ccc([N+](=O)[O-])cc1`, active: 0.849 µM.
In the case of `CC1(C)C(c2ccccc2)=NN(O)c2ccccc21`, the GI50 is inactive: > 100 µM.
As for `C[Si](C)(C)C(CCCCSc1ccccc1)(Sc1ccccc1)Sc1ccccc1`, the GI50 was inactive: > 100 µM.
For `COc1cc2c(cc1OC)C1(c3ccccc3)ON=C(c3ccccc3)N1CS2` (stereo not drawn), the GI50 is inactive: > 100 µM.
As for `CC(C)=C1CCC(CN2CCOCC2)C1=O` (stereo not drawn), the GI50 was inactive: 33.4 µM.
Then `Cc1cn([C@H]2CN(O)C[C@@H](CO)O2)c(=O)[nH]c1=O`, with inactive: > 100 µM; and `CC(=O)OCC1=C(COC(C)=O)C(=O)c2c(O)ccc(O)c2C1=O`, with inactive: 16 µM; and `N#CCc1nnc(N)o1`, with inactive: > 100 µM.
Then `CC(C)(C)OC(=O)c1cccnc1/C=N/O`, with inactive: > 100 µM; and `C=C(C)[C@@H]1CCC2=C[C@@H](OC2=O)[C@@H](C(=C)C)C2=CC(C(=O)O)=C(C1)O2`, with inactive: 93.3 µM; and `CCC(=O)N1NC(=O)C(CC)(CC)C1=O`, with inactive: > 100 µM.
For `Cc1ccc(C(=O)/C=C(\O)C(=O)NN=C(c2ccccc2)c2ccccc2)cc1`, the GI50 is inactive: > 100 µM.
In the case of `O=C1NC(=S)N(c2ccccc2)C1=O` it was inactive: > 100 µM; in that of `COC(=O)/C(=C\c1ccc(N(CCC#N)CCC#N)cc1)NC(=O)c1cc([N+](=O)[O-])ccc1Cl`, inactive: > 100 µM; in that of `O=C(CC(=O)Nc1cccc(C(=O)O)c1)Nc1cccc(C(=O)O)c1`, inactive: > 100 µM.
Consider `O=[N+]([O-])c1ccc2[nH]nc(OCc3ccccn3)c2c1`, for which the GI50 is inactive: > 100 µM.
In the case of `COc1cc(C(=O)n2c3ccc(Br)cc3c3nc4ccccc4nc32)cc(OC)c1OC` it was inactive: > 100 µM; in that of `CC(C)C(NCc1c(O)ccc2c(-c3ccccc3)cc(=O)oc12)C(=O)O` (stereo not drawn), inactive: > 100 µM; in that of `C=C1c2ccccc2N(S(=O)(=O)c2ccc(C)cc2)C12CCCCC2`, inactive: > 100 µM.
With `CC(C)C1OC(=O)/C=C/C=C/C=C/C=C/C=C/CC(O)CC(O)CC(O)CC(O)CC(O)CC(O)CC(O)CC(O)/C=C/C1C` (stereo not drawn), the GI50 was inactive: > 100 µM.
Then `CN(C)NC1=NS(=O)(=O)c2cc3c(=O)n(C)[nH]c3cc2S1`, with inactive: > 10 µM; and `COc1ccc(N(C(=O)OC(C)(C)C)[C@@H]2C(C)=C[C@H]([S@@+]([O-])c3ccc(C)cc3)[C@@H]3C(=O)N(C)C(=O)[C@@H]32)cc1`, with inactive: 20 µM; and `CC(=O)Oc1ccn2nc(C)c(Cc3c(C)nn4ccc(OC(C)=O)cc34)c2c1`, with inactive: > 100 µM.
On to `CC(CCCOC(c1ccccc1)(c1ccccc1)c1ccccc1)OC(=O)Nc1cc([N+](=O)[O-])cc([N+](=O)[O-])c1` (stereo not drawn), for which the GI50 is inactive: 37 µM.
Consider `CN(C)c1ccc(C(C#N)N2CCCN(C(C#N)c3ccc(N(C)C)cc3)C2c2ccc(N(C)C)cc2)cc1` (stereo not drawn), for which the GI50 is inactive: > 100 µM.
As to `N#Cc1cccc(N2C(=O)c3ccc(C(=O)c4ccc5c(c4)C(=O)N(c4cccc(C#N)c4)C5=O)cc3C2=O)c1`, the GI50 is inactive: > 100 µM.
Take `Cc1ccc(C(=O)Cn2c(C(=O)/C=C/c3cccs3)nc3ccccc32)cc1`: the GI50 was inactive: 38.6 µM.
On to `Cc1cc(Cl)ccc1NC1=NC(=O)C(CC(=O)Nc2ccc([N+](=O)[O-])cc2[N+](=O)[O-])S1` (stereo not drawn), for which the GI50 is inactive: 36.3 µM.
Take `O=C1C(Br)=CC2(C=C1Br)CCNC1=C2C(=O)c2ccccc2C1=O`: the GI50 is inactive: 35.2 µM.
For `COc1cc(OC)cc(OCc2ccc3nc(-c4ccccc4)c(Cl)nc3c2)c1`, the GI50 is inactive: 86.9 µM.
Consider `NNC(=O)Cn1ccnn1`, for which the GI50 was inactive: > 100 µM.
Turning to `N=c1sc(N2CCOCC2)nn1CC(=O)c1ccccc1`, the GI50 is inactive: > 100 µM.
With `O=C(O)CCC(NC(=O)c1ccc(Nc2nc3ccccc3nc2-c2cccs2)cc1)C(=O)O` (stereo not drawn), the GI50 was inactive: > 100 µM.
For `COc1cc(C2C(C(=O)O)=C(COC(C)=O)Oc3cc4c(cc32)OCO4)cc(OC)c1OC(C)=O` (stereo not drawn), the GI50 was inactive: > 100 µM.
For the compound `CC12OC1(C)C1C(=O)OCC1C2=O` (stereo not drawn), the GI50 is inactive: > 100 µM.
In the case of `C=CCOC(=O)C1C2OC3(C(C(=O)OC)=C2C(=O)OC)c2ccccc2CCC13` (stereo not drawn), the GI50 was inactive: > 10 µM.
For `CN(C)CCN1CCc2c([nH]c3ccccc23)C1c1cccnc1` (stereo not drawn), the GI50 is inactive: > 100 µM.
In the case of `C[C@@]12[C@H]3CC[C@@H]1[C@H](O)C(=O)N2CC3` it was inactive: > 100 µM; in that of `CCOC(=O)n1ccc2c(C(=O)OC)c(C(=O)OC)cc(/C(=C/C(=O)OC)C(=O)OC)c21`, inactive: > 100 µM.
Turning to `C=CCCCCCCCCCP(=O)(c1ccccc1)c1ccc2c(c1)OCCOCCOCCOCCO2` (stereo not drawn), the GI50 was inactive: 15.1 µM.
Take `COc1cc(-c2coc3c(OC)c(OC4OC(COC5OC(C)C(O)C(O)C5O)C(O)C(O)C4O)c(OC)c(O)c3c2=O)cc(C)c1O` (stereo not drawn): the GI50 was inactive: 15.1 µM.
Regarding `O=P1(C(O)/C=C/c2ccccc2)N(Cc2ccccc2)[C@@H]2CCCC[C@H]2N1Cc1ccccc1` (stereo partly drawn), the GI50 was inactive: 9.91 µM.
Take `CSc1nc(NC2CC2)c2c(n1)Sc1nc3ccccc3n1N=C2`: the GI50 was inactive: 11.7 µM.
On to `CCN(CC)c1ccc2cc(C(=O)Nc3ccccc3)c(=N)oc2c1`, for which the GI50 was inactive: > 100 µM.
As to `COc1cc(OC)cc(-n2c(N)c(-c3nc4ccccc4s3)c3ccc([N+](=O)[O-])cc3c2=O)c1`, the GI50 is inactive: 92 µM.
For the compound `Cc1nn(-c2ccccc2)c2nc(S)cnc12`, the GI50 is inactive: > 100 µM.
In the case of `O=C(O)c1cc2ccccc2c(S(=O)(=O)O)c1O`, the GI50 is inactive: > 100 µM.
Then `CC(=O)OCC1=CC2CCC3C(C)(CCC[C@]3(C)COC(C)=O)C23CC[C@H]1C3` (stereo partly drawn), with inactive: > 100 µM; and `COc1cccc(N2C(=O)C3C4C=C5c6ccccc6N(c6ccccc6)C5(C3C2=O)[C@H]2C(=O)N(c3cccc(OC)c3)C(=O)[C@@H]42)c1` (stereo partly drawn), with inactive: > 100 µM; and `O=C1C2[C@@H](C(=O)N1c1ccc(Br)cc1)C13C(=CC2([N+](=O)[O-])[C@@H]2C(=O)N(c4ccc(Br)cc4)C(=O)[C@@H]21)c1ccccc1N3c1ccccc1` (stereo partly drawn), with inactive: > 100 µM.
In the case of `CCCCCCCCCCCCCCCC(=O)NC1CCc2cc(O)c(O)c(O)c2-c2ccc(SC)c(=O)cc21` (stereo not drawn) it was inactive: 13.7 µM.
For `O=S(=O)(c1ccccc1)N1N=C2c3ccccc3CCC[C@H]2C1c1ccccc1` (stereo partly drawn), the GI50 was inactive: > 100 µM.
With `CC1/C=C/[C@@]2(C)CCC(C(C)(C)O)C2C(O)C[C@](C)(O)/C=C/C1` (stereo partly drawn), the GI50 is inactive: > 100 µM.
For the compound `CCC(=O)OC1CCn2c1nc1c2C(=O)C(C)=C(NC(C)=O)C1=O` (stereo not drawn), the GI50 was inactive: 6.19 µM.
Then `N#C/C(=C\c1cc(Br)c(O)c(Br)c1)c1ccccn1`, with inactive: 93.1 µM; and `C=C(C)[C@@H]1CC[C@]2(C(=O)OC3OC(COC4OC(CO)C(OC5OC(C)C(O)C(O)C5O)C(O)C4O)C(O)C(O)C3O)CC[C@]3(C)[C@H](CC[C@@H]4[C@@]5(C)CC[C@H](O)[C@@](C)(CO)[C@@H]5CC[C@]43C)[C@@H]12` (stereo partly drawn), with inactive: 4.51 µM.
In the case of `O=C1OC(C2OC(=O)c3cc(O)c(O)c(O)c3-c3c(O)c(O)c4oc(=O)c5c(c(O)c(O)c6oc(=O)c3c4c65)-c3c(cc(O)c(O)c3O)C(=O)OCC2O)C2OC(=O)c3c(c(O)c(O)c(O)c3[C@H]2O)-c2c1cc(O)c(O)c2O` (stereo partly drawn) it was inactive: 16.5 µM.

For the origin of these results see ChEMBL document CHEMBL1201862, “PubChem BioAssay data set” (2004).
